Residue numbers refer to the chain shown, from its start. No constants are given. Whether binding was seen depends on the method and setting. Binding seen in cells or lysates may run through a third protein. Some entries that bind do so weakly or less than the wild type. Where a sequence is shown, tags or fusion partners need not be part of it. Values belong to the binder of their own block, whether it stands above or below them.
Legend:
Assay in all cases: co-IP; Jurkat cells transduced with CD6-EGFP or mutants, treated with pervanadate, lysed in 1% Triton X-100; CD6 immunoprecipitated with CD6 MAb MEM-98 and protein A/G beads; Western blots for SLP-76, GADS, TSAd, GRB2, EGFP
[1] = target: T1, human CD6 Y629F Y662F double mutant fused to EGFP (human) (UniProt P30203)
T1 sequence: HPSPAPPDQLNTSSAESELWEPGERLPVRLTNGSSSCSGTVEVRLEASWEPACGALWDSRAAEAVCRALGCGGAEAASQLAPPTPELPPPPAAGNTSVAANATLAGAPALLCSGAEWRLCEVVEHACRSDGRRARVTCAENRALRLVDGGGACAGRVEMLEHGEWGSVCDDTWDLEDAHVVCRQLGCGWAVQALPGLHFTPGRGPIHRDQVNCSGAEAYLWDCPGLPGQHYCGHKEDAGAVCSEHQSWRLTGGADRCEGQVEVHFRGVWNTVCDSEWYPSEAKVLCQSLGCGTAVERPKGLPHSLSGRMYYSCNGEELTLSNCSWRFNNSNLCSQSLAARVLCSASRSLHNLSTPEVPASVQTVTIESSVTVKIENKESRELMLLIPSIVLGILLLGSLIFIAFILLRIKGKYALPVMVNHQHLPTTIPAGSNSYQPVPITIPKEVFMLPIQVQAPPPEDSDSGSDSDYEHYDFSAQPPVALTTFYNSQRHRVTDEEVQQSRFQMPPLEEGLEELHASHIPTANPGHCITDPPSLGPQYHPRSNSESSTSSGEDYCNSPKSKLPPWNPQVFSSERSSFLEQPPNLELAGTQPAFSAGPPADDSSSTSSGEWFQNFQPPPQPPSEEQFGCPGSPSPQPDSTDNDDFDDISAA

[2] = target: T2, human CD6 Y629F single mutant fused to EGFP (human) (UniProt P30203)
T2 sequence: T1 sequence with F645Y

[3] = target: T3, human CD6 Y662F single mutant fused to EGFP (human) (UniProt P30203)
T3 sequence: T1 sequence with F612Y

[4] = target: T4, human CD6 fused to EGFP (human) (UniProt P30203)
T4 sequence: T1 sequence with F612Y, F645Y

binding [1]: no binding | binding [2]: binds | binding [3]: binds
B1: GRB2-related adaptor downstream of Shc (GADS), endogenous (protein, UniProt O75791 1-330)
chain: MEAVAKFDFTASGEDELSFHTGDVLKILSNQEEWFKAELGSQEGYVPKNFIDIQFPKWFHEGLSRHQAENLLMGKEVGFFIIRASQSSPGDFSISVRHEDDVQHFKVMRDNKGNYFLWTEKFPSLNKLVDYYRTNSISRQKQIFLRDRTREDQGHRGNSLDRRSQGGPHLSGAVGEEIRPSMNRKLSDHPPTLPLQQHQHQPQPPQYAPAPQQLQQPPQQRYLQHHHFHQERRGGSLDINDGHCGTGLGSEMNAALMHRRHTDPVQLQAAGRVRWARALYDFEALEDDELGFHSGEVVEVLDSSNPSWWTGRLHNKLGLFPANYVAPMTR

binding [1]: no binding | binding [2]: binds | binding [3]: binds | binding [4]: binds
B2: SH2 domain-containing leukocyte molecule of 76 kDa (SLP-76), endogenous (protein, UniProt Q13094 1-533)
chain: MALRNVPFRSEVLGWDPDSLADYFKKLNYKDCEKAVKKYHIDGARFLNLTENDIQKFPKLRVPILSKLSQEINKNEERRSIFTRKPQVPRFPEETESHEEDNGGWSSFEEDDYESPNDDQDGEDDGDYESPNEEEEAPVEDDADYEPPPSNDEEALQNSILPAKPFPNSNSMYIDRPPSGKTPQQPPVPPQRPMAALPPPPAGRNHSPLPPPQTNHEEPSRSRNHKTAKLPAPSIDRSTKPPLDRSLAPFDREPFTLGKKPPFSDKPSIPAGRSLGEHLPKIQKPPLPPTTERHERSSPLPGKKPPVPKHGWGPDRRENDEDDVHQRPLPQPALLPMSSNTFPSRSTKPSPMNPLPSSHMPGAFSESNSSFPQSASLPPYFSQGPSNRPPIRAEGRNFPLPLPNKPRPPSPAEEENSLNEEWYVSYITRPEAEAALRKINQDGTFLVRDSSKKTTTNPYVLMVLYKDKVYNIQIRYQKESQVYLLGTGLRGKEDFLSVSDIIDYFRKMPLLLIDGKNRGSRYQCTLTHAAGYP

— article PMC5440646, “T Cell Costimulation by CD6 Is Dependent on Bivalent Binding of a GADS/SLP-76 Complex” (Molecular and Cellular Biology, 2017)
